Test results reported in patent US20180200366A1 (ALTOR BIOSCIENCE, published 2018).

B1: huIL-15N72D: human LFA-1 I domain(K287C/K294C)/huIL-15RαSu/huIgG1 Fc complex (2*hLFA1/T×M) (Fc fusion)
chain 1: [about 120 residues left out]
chain 2: DLVFLFDGSMSLQPDEFQKILDFMKDVMKKLSNTSYQFAAVQFSTSYKTEFDFSDYVKRKDPDALLKHVKHMLLLTNTFGAINYVATEVFREELGARPDATKVLIIITDGEATDSGNIDAAKDIIRYIIGIGKHFQTKESQETLHKFASKPASEFVCILDTFECLKDLFTELQKKIYVIEGTSKQDLTSFNMELSSSGISADLSRGHAITCPPPMSVEHADIWVKSYSLYSRERYICNSGFKRKAGTSSLTECVLNKATNVAHWTTPSLKCIR[human IgG1 Fc left out]
notes: also called LFA-1 T×M complex
B2: 2 headed (h2) hOATscAb/T×M (Fc fusion)
chain 1: [about 120 residues left out]
chain 2: DIQMTQSPASLSASVGDRVTITCLASQTIDTWLAWYLQKPGKSPQLLIYAATNLADGVPSRFSGSGSGTDFSFTISSLQPEDFATYYCQQVYSSPFTFGQGTKLEIKGGGGSGGGGSGGGGSQIQLVQSGGEVKKPGASVRVSCKASGYSFTDYNVYWVRQSPGKGLEWIGYIDPYNGITIYDQNFKGKATLTVDKSTSTAYMELSSLRSEDTAVYFCARDVTTALDFWGQGTTVTVSSITCPPPMSVEHADIWVKSYSLYSRERYICNSGFKRKAGTSSLTECVLNKATNVAHWTTPSLKCIR[human IgG1 Fc left out]
B3: anti-human PD-L1scAb/hOATscAb/T×M (Fc fusion)
chain 1: B2 chain 2
chain 2: NIQMTQSPSSVSASVGDRVTITCRASQDISRWLAWYQQKPGKAPKLLIYAASSLQSGVPSRFSGSGSGTDFALTISSLQPEDFATYYCQQADSRFSITFGQGTRLEIKRGGGGSGGGGSGGGGSEVQLVQSGGGLVQPGGSLRLSCAASGFTFSSYSMNWVRQAPGKGLEWVSYISSSSSTIQYADSVKGRFTISRDNAKNSLYLQMNSLRDEDTAVYYCARGDYYYGMDVWGQGTTVTVSS[about 120 residues left out]
B4: second anti-human PD-L1 scAb/IL-15N72D:anti-human PD-L1 scAb/huIL-15RαSu/huIgG1 Fc fusion protein complex (avelumab T×M) (Fc fusion)
chain 1: QSALTQPASVSGSPGQSITISCTGTSSDVGGYNYVSWYQQHPGKAPKLMIYDVSNRPSGVSNRFSGSKSGNTASLTISGLQAEDEADYYCSSYTSSSTRVFGTGTKVTVLGGGGSGGGGSGGGGSEVQLLESGGGLVQPGGSLRLSCAASGFTFSSYIMMWVRQAPGKGLEWVSSIYPSGGITFYADTVKGRFTISRDNSKNTLYLQMNSLRAEDTAVYYCARIKLGTVTTVDYWGQGTLVTVSS[about 120 residues left out]
chain 2: QSALTQPASVSGSPGQSITISCTGTSSDVGGYNYVSWYQQHPGKAPKLMIYDVSNRPSGVSNRFSGSKSGNTASLTISGLQAEDEADYYCSSYTSSSTRVFGTGTKVTVLGGGGSGGGGSGGGGSEVQLLESGGGLVQPGGSLRLSCAASGFTFSSYIMMWVRQAPGKGLEWVSSIYPSGGITFYADTVKGRFTISRDNSKNTLYLQMNSLRAEDTAVYYCARIKLGTVTTVDYWGQGTLVTVSSITCPPPMSVEHADIWVKSYSLYSRERYICNSGFKRKAGTSSLTECVLNKATNVAHWTTPSLKCIR[human IgG1 Fc left out]
notes: also called avelumab-based PD-L1 T×M complex

Legend:
[1] = molecular target: T1, human ICAM-1-Fc (Biolegend) (human, UniProt P05362 28-480); assay: ELISA, 1 µg human ICAM-1-Fc coated, CHO supernatant, HRP anti-human IL-15 detection, A405
T1 construct: not shown: Fc part of the bought fusion; not described
T1 sequence (P05362 28-480 limits assumed): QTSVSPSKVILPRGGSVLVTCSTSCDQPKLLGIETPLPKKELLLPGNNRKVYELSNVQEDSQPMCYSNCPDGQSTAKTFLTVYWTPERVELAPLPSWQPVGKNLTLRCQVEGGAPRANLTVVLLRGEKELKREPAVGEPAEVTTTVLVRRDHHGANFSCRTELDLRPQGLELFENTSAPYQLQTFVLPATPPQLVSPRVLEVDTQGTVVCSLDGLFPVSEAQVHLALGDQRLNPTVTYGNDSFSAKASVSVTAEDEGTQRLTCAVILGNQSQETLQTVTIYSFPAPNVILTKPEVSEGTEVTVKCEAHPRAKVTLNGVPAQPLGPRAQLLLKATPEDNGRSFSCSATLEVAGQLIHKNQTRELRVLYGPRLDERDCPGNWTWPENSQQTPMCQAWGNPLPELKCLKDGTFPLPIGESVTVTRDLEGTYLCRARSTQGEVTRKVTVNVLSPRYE

[2] = molecular target: IL-2Rβ/γ on 32Dβ cells; assay: cell-based or functional assay
IL-2Rβ/γ on 32Dβ cells, sequence (P14784 27-551, chain 1 of 2): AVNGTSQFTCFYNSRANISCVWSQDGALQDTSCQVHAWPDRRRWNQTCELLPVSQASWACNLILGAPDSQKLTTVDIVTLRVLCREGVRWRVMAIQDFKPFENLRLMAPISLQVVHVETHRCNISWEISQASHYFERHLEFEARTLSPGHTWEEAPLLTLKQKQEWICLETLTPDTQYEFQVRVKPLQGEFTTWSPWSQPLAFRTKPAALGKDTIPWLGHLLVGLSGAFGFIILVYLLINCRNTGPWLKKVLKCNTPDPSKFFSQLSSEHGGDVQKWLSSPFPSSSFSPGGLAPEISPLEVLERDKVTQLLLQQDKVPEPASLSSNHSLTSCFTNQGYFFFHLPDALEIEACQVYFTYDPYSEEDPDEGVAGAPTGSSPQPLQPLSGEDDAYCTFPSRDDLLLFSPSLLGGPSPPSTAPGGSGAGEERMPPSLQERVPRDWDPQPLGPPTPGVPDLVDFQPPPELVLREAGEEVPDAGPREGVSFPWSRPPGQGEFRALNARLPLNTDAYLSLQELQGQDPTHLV
IL-2Rβ/γ on 32Dβ cells, sequence (P34902 23-369, chain 2 of 2, further chain): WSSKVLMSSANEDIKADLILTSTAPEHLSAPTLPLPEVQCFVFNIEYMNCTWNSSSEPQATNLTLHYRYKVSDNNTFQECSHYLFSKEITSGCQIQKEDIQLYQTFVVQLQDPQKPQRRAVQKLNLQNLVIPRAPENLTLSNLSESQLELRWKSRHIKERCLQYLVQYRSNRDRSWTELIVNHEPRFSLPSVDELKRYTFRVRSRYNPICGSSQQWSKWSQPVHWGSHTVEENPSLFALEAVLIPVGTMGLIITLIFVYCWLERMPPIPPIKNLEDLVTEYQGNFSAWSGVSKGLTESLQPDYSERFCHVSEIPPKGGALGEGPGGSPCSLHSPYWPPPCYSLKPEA

[3] = molecular target: T2, human PD-L1 (human, UniProt Q9NZQ7); assay: flow cytometry on MB231 tumor cells
T2 construct: whole, on cells; also called PD-L1 on MB231, PC-3 and SW1990 human tumor cells
T2 sequence (Q9NZQ7 19-290): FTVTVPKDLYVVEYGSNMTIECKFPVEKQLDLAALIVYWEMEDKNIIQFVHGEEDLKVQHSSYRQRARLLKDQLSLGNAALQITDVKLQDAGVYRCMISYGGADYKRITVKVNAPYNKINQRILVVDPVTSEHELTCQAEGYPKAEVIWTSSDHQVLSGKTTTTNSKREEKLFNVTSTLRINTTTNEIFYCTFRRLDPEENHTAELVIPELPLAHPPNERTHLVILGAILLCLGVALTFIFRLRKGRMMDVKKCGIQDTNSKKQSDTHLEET

Binder	EC50 of IL-15 bioactivity (32Dβ cell proliferation, PrestoBlue) [2]	other results
B1	–	binding result [1]: binds
B2	115 pM TxM	–
B3	202 pM TxM	–
B4	–	binding result [3]: binds
